Patent US20230122503A1, “ANTI-PSMA RADIOCONJUGATES AND USES THEREOF” (Janssen Biotech, Inc., priority 2021, published 2023)

B1: PSMB1154 (antibody)
heavy: EVQLVESGGGEVQPGRSLRLTCAVSGFTLSRYGMHWVRQAPGKGLEWAALISYDGSNRYYADSVKGRFTISRDNSKNTVFLQMNSLRAEDTAVYYCARERESSGWFEGYFDYWGQGTTVTVSS[human IgG1 constant region not given here]
light: QLVLTQPPSVSVAPGQTARITCGGNNIGSKSVHWYQQKPGQAPVLVVYDNSDRPSGIPERFSGSNSGNTATLTISRVEVGDEADYYCQVWDSSSDHVVFGGGTKLTVLGQPKAAPSVTLFPPSSEELQANKATLVCLISDFYPGAVTVAWKADSSPVKAGVETTTPSKQSNNKYAASSYLSLTPEQWKSHRSYSCQVTHEGSTVEKTVAPTECS
B2: PSMB1157 (antibody)
heavy: EVQLVESGGGVVQPGRSLRLSCAASVRTFSGYGMHWVRQVPGKGLEWVAVISYDGSNRYYADSVKGRFTISRDNSKNTLYLQMNSLRTEDTAVYYCARDGNWGSLDLYFDLWGRGTLVTVSS[human IgG1 constant region not given here]
light: QSVLTQPPSVSGAPGQRVTISCTGSSSNIGADYDVHWYQQLPGTAPKLLIYVNNNRPSGVPDRFSGSRSGTSASLAITGLQADDEADYYCQSYDNTLSGVVFGGGTKLTVLGQPKAAPSVTLFPPSSEELQANKATLVCLISDFYPGAVTVAWKADSSPVKAGVETTTPSKQSNNKYAASSYLSLTPEQWKSHRSYSCQVTHEGSTVEKTVAPTECS

What was measured:
[1] = Thermal stability by nanoDSF (Tm, Tagg); format: physicochemical; conditions: 20° C. to 95° C. at 1.0° C./minute
Protocol: The thermal stability (conformational stability) of the anti-PSMA antibodies was determined by nanoDSF method using a Prometheus instrument. Measurements were made by loading sample into 24 well capillary from a 384 well sample plate. Duplicate runs were performed. The thermal scans span from 20° C. to 95° C. at a rate of 1.0° C./minute. The data was processed to obtain integrated data and first derivation analysis for 330 nm, 350 nm, Ratio 330/350, and scatter data from which thermal transitions, onset of unfolding, Tm and Tagg were obtained.
“Tm” or “mid-point temperature” is the temperature midpoint of a thermal unfolding curve. It refers to the temperature where 50% of the amino acid sequence is in its native conformation and the other 50% is denatured. A thermal unfolding curve is typically plotted as a function of temperature. Tm is used to measure protein stability. […] The Tm can be readily determined using methods well known to those skilled in the art such as Circular Dichroism Spectroscopy, Differential Scanning Calorimetry, Differential Scanning Fluorimetry (both intrinsic and extrinsic dye based), UV spectroscopy, FT-IR and Isothermal Calorimetry (ITC).
“Tagg” refers to the temperature at which the protein starts to aggregate either through dimerization or oligomerization. The aggregation temperature detects the onset of aggregation, the temperature at which a protein will show a tendency to aggregate. Tagg can be determined by differential scanning calorimetry (DSC), Differential Scanning Fluorimetry (DSF) or by circular dichroism (CD). These techniques can detect small changes in the conformation of the protein and therefore detect the starting point of aggregation. Tagg values can be lower or higher than Tm. In cases where Tagg is lower than Tm, the protein either dimerizes and/or oligomerizes first and then starts unfolding later at higher temperatures than the Tagg. In cases where Tagg is higher than Tm, the protein starts to unfold first and then aggregates at a higher temperature than the Tm. Both events are commonly observed and depend on amino acid composition and protein conformation.
Thermal unfolding parameters, Tm or midpoint temperature of thermal unfolding and Tagg or aggregation temperature of selected anti-PSMA antibodies are shown in Table 23.

[2] = Cross interaction chromatography (CIC); format: physicochemical; conditions: Perfinity Custom IgG coupled column, PBS 0.2 ml/min
Protocol: To assess IgG cross-interaction potential the anti-PSMA antibodies were evaluated by CIC (cross interaction chromatography) method. In summary, samples were diluted to 0.11 mg/ml in PBS and 15 uL of sample were injected on a Perfinity Custom IgG coupled column. HIC was run by eluting with PBS at 0.2 ml/min while monitoring A280, A214 and A254. The IgG cross-interaction propensity was evaluated as retention time relative to a control of known IgG cross-interaction.

[3] = test system: C4-2b cells, a cell line with high PSMA expression; assay: Cytotoxicity of MMAF-conjugated anti-PSMA antibodies on C4-2B cells (Cell Titer Glo, 72h); format: cell-based, human; conditions: MMAF-conjugated antibody, DAR ~4.0, 72h, read-out: Cytotox (IC50) C4-2B, DAR ~4.0
Protocol: mAbs were conjugated to a monomethyl auristatin F (MMAF) payload in a 96-well format to enable screening for optimal ADC candidates. 220 ug of each mAb (1 mg/mL in dPBS) was mixed with TCEP to a final concentration of 3 mM and incubated at 37° C. for 1r. Reduced mAbs were captured on protein A resin (Protein A HP Multitrap, GE) and washed 3× with 100 mM potassium phosphate containing 2 mM EDTA at pH 7.5 to remove TCEP.
A mixture of maleimide-PEG4-vcPAB-MMAF and N-ethyl maleimide (60:40 molar ratio, 100 uM total in 100 mM potassium phosphate containing 2 mM EDTA at pH 7.5) was prepared and the resin with bound mAb was resuspended in 300 uL of the maleimide mixture. Samples were rotated for 1 hr at RT followed by quenching with N—Ac-L-Cys (2.6 mM final). Resin was washed with dPBS and then bound mAbs were eluted with 100 mM sodium acetate pH 3.5 into 0.2-0.25 volumes of 1 M Tris pH 8.0 to neutralize. ADC concentrations and DAR (panel average of 4.0±0.5) of the eluted ADCs were determined by UV-Vis spectrophotometry at 248 and 280 nm based on previous reports (Hamblett, et. al., (2004) Clinical Cancer Research, 10, 7063-7070; Cruz and Kayser (2009) Cancers 11(6), 870)
C4-2b cells, a cell line with high PSMA expression, were cultured in RPMI1640 containing GlutaMAX, 25 mM HEPES and 10% fetal bovine serum (FBS) and then plated in white 96 well plates at 3000 cells per well (60 uL/well). Twenty four hours after plating, cells were treated with varying concentrations of the ADCs and then incubated at 37 C, 5% CO2. Following 72h of treatment, cell viability was assessed by Cell Titer Glo (Promega), according to manufacturer's instructions. Relative luminescence units (RLU) were detected in an Envision plate reader (Molecular Devices) and then normalized to untreated controls. The concentration at which there was 50% toxicity was determined by fitting the values to a 3-point sigmoidal curve where the top was constrained to 100% and interpolating the X-value at Y=50%.

[4] = SE HPLC of purified antibodies (% monomer post protein A); format: physicochemical; conditions: post protein A purification
Protocol: SE HPLC of the purified antibodies was performed by running samples on a TOSOH TSKgel BioAssist G3SWxl column, in 0.2 M Na Phosphate pH 6.8 at 1 mL/min on a Waters Alliance HPLC for 20 min. The column effluent was monitored by absorbance at 280 nm. For a molecule to be considered a therapeutic lead, it is critical that it can be produced in substantial amounts with high purity and high yield. Typically, purification losses are higher, and yields are lower with aggregation-prone proteins. The initial monomer percentage is generally considered a good surrogate indicator of the manufacturability of a protein.

[5] = Hydrophobic interaction chromatography (HIC); format: physicochemical; conditions: for Retention time: HIC, TSKgel Butyl-NPR column
Protocol: To assess surface their hydrophobicity, the anti-PSMA antibodies were evaluated by HIC (hydrophobic interaction chromatography) method. In summary samples were diluted 1:5 in high salt buffer A and approximately 10 ugs of sample was injected on a TOSOH TSKgel Butyl-NPR column on an Agilent HPLC instrument. HIC was run under a linear Amonium-S04 gradient from 1.1M-0M. UV280, and fluorescence (excitation at 280 nm and emission at 340 nm) signals were collected. The hydrophobicity propensity was evaluated as retention time relative to a control of known high hydrophobicity and reported as a hydrophobicity index (HI).

Molecule | Fab Tm [1] | Tagg [1] | Retention time [2] | IC50 [3] | SEC (% monomer post protein A) [4] | Retention time [5] | HI (hydrophobicity index) ([5]; retention time relative to high hydrophobicity control)
B1 | 72.8 °C | 72.8 °C | 4.372 min | 0.0156 nM | 98.1% | 2.338 min | 
B2 | 77.5 °C | 76.4 °C | 4.638 min | 0.0194 nM | 90.0% | 4.361 min | 0.84
